Test results as given in the BET-seq Pho4 binding data (Le et al. 2018).
Some of the results follow. These are noisy estimates, calculated here from bound and input reads.

These sequences were tested against T1, Pho4 (S. cerevisiae) (UniProt P07270) (assay: relative binding free energy (BET-seq); higher = weaker binding). Settings: reference: library average.
T1 sequence: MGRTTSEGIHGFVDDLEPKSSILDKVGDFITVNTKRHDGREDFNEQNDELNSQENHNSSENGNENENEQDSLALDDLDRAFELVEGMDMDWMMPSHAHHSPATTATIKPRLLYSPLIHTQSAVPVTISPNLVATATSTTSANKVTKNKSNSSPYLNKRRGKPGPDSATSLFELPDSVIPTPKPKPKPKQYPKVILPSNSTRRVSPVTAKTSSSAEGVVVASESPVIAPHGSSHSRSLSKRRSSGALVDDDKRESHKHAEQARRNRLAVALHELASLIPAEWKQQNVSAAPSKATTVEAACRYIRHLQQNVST

Row | Sequence | relative binding free energy [kcal/mol]
1 | GTGGTCACGTGAGCTT | 0.38
2 | GTGGTCACGTGACTGT | 0.19
3 | TTGTGCACGTGCTGTT | -0.05
4 | AGTGTCACGTGGCTGT | -0.09
5 | TGGGGCACGTGGGAAA | -0.19
6 | CTGTGCACGTGTAGTT | -0.02
7 | TTAGGCACGTGCTGCG | -0.3
8 | TGCTGCACGTGGCTGT | -0.13
9 | CATGCCACGTGGGGTT | -0.29
10 | TGGGTCACGTGTTATG | 0.27
11 | AAGGTCACGTGTTCGG | 0.28
12 | TGCGTCACGTGTTATT | 0.02
13 | TAAATCACGTGTAAGA | 0.34
14 | TTGTCCACGTGGTGGA | 0.03
15 | TCTTGCACGTGCTGGT | -0.05
16 | ATTAACACGTGTTTGT | -0.14
17 | TGTTGCACGTGGTGCC | -0.18
18 | GTTGGCACGTGGGGGC | -0.12
19 | TGAGCCACGTGTAGTA | 0.05
20 | AATTGCACGTGGCTGG | -0.08
21 | TTAGTCACGTGAATAA | 0.25

Row | Sequence | relative binding free energy [kcal/mol]
22 | GTGATCACGTGTTGTC | 0.08
23 | GCTTGCACGTGCGTAG | 0.15
24 | ATGATCACGTGAGTTT | 0.28
25 | AGCTGCACGTGATGCG | 0.1
26 | CAGAGCACGTGGGAGG | -0.2
27 | GGGGGCACGTGGGTAC | -0.07
28 | TTACACACGTGGGAGG | -0.06
29 | AAGGACACGTGTCAGT | 0.24
30 | GGTTACACGTGGGAGC | -0.02
31 | TCGGGCACGTGCAGTG | -0.18
32 | TTATGCACGTGTTAAG | -0.08
33 | ATTAGCACGTGTTTGT | -0.08
34 | ATGGGCACGTGAACAG | 0.15
35 | AAGATCACGTGTAGTT | 0.14
36 | GGAAACACGTGTGGTT | 0.01
37 | CGTTGCACGTGAGATG | 0.12
38 | AGTGTCACGTGTAGGC | 0.05
39 | TCGTGCACGTGTGGGG | -0.08
40 | TAATGCACGTGGTTAG | -0.1
41 | GTGTACACGTGAGACG | 0.19
42 | TTGAGCACGTGCGAGG | -0.16

Row | Sequence | relative binding free energy [kcal/mol]
43 | ATGTGCACGTGTATTA | 0.08
44 | TAGGTCACGTGTAACG | 0.25
45 | GTGAGCACGTGCGTTT | -0.09
46 | CTGACCACGTGTGTGG | -0.01
47 | TTAGACACGTGAGGCT | 0.26
48 | ATTTACACGTGAATGG | 0.26
49 | ATGTCCACGTGGGTAA | -0.01
50 | GTCAACACGTGGGGTT | -0.06
51 | GGTATCACGTGTATCG | 0.14
52 | TATAACACGTGGTAAT | 0.05
53 | GTGGTCACGTGAACTG | 0.43
54 | ATATTCACGTGGGATG | 0.06
55 | ATCGTCACGTGTAGGA | 0.29
56 | TATTACACGTGTCATT | 0.11
57 | TTTGACACGTGCTGTT | -0.23
58 | TAGAACACGTGGATTT | 0.22
59 | TTCGTCACGTGGGGGG | 0.01
60 | TCTGGCACGTGAGGGG | 0.16
61 | ATGTACACGTGGGCGA | -0.02
62 | GGTATCACGTGAATTA | 0.44
63 | GACTTCACGTGATTGG | 0.48
